The list shows a part of the results. No stated cut-off is given here; in the data, active = 3.2 or more and inactive = the rest. Most of these values are background signal.
Assays:
Experiment in all cases: enrichment score (SH2-bound / input frequency) (ratio); bacterial display of known human phosphotyrosine sites (pTyr-Var adds point mutants) read by sequencing; higher = stronger binding; tyrosines were phosphorylated by kinases first
Conditions in all cases: peptide library: pTyr-Var
[1] = biological target: SHP2 C-SH2 domain E139D
[2] = biological target: SHP2 C-SH2 domain wild-type
[3] = biological target: SHP2 N-SH2 domain L43F
[4] = biological target: SHP2 N-SH2 domain T42A
[5] = biological target: SHP2 N-SH2 domain T52S
[6] = biological target: SHP2 N-SH2 domain wild-type
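Further: displayed peptides selected on beads carrying the immobilized SH2 domain, with library peptides lacking any tyrosine serving as negative controls.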

How did the enrichment score [1] turn out when TVLWWYTGTRP [UGT1A1_Y337_R336W] was run?
Its enrichment score is inactive: 1.34.

And the enrichment score [2]?
The enrichment score was inactive: 1.22.

What about the enrichment score [3] of the same binder?
The enrichment score was inactive: 1.05.

And the enrichment score [4]?
Its enrichment score is inactive: 1.24.

What about the enrichment score [5] of the same binder?
The enrichment score was inactive: 1.33.

What about the enrichment score [6] of the same binder?
The enrichment score was inactive: 1.35.

Which results are given for IQTDGYRAPEA [UHMK1_Y197]?
enrichment score [1]: inactive: 0.561; enrichment score [2]: inactive: 0.518; enrichment score [3]: inactive: 0.365; enrichment score [4]: inactive: 0.602; enrichment score [5]: inactive: 0.694; enrichment score [6]: inactive: 0.622

How did the enrichment score [1] turn out when IQTDGDRAPEA [UHMK1_Y197_Y197D] was run?
The enrichment score was inactive: 0.543.

What about the enrichment score [2] of the same binder?
The enrichment score was inactive: 0.482.

What about the enrichment score [3] of the same binder?
The enrichment score was inactive: 0.444.

What about the enrichment score [4] of the same binder?
The enrichment score was inactive: 0.306.

And the enrichment score [5]?
Its enrichment score is inactive: 0.421.

What about the enrichment score [6] of the same binder?
The enrichment score was inactive: 0.564.

DSMQSYDLDFP [UNC13B_Y243_YF] was tested. Which enrichment score [1] did it give?
Its enrichment score is inactive: 0.5.

And the enrichment score [2]?
The enrichment score was inactive: 0.443.

And the enrichment score [3]?
Its enrichment score is inactive: 0.556.

And the enrichment score [4]?
Its enrichment score is inactive: 0.409.

What about the enrichment score [5] of the same binder?
Its enrichment score is inactive: 0.625.

What about the enrichment score [6] of the same binder?
The enrichment score was inactive: 0.535.

With QRALLYEDTLY [UNC13D_Y56_A59T] as the binder, how does the enrichment score [1] read?
The enrichment score was inactive: 1.05.

What about the enrichment score [2] of the same binder?
The enrichment score was inactive: 1.12.

And the enrichment score [3]?
The enrichment score was inactive: 0.907.

And the enrichment score [4]?
The enrichment score was inactive: 0.771.

What about the enrichment score [5] of the same binder?
Its enrichment score is inactive: 0.874.

What about the enrichment score [6] of the same binder?
Its enrichment score is inactive: 1.03.

Which enrichment score [1] does the source give for QRALLYEDTLF [UNC13D_Y56_A59T_YF] here?
Its enrichment score is inactive: 0.931.

And the enrichment score [2]?
Its enrichment score is inactive: 0.996.

And the enrichment score [3]?
The enrichment score was inactive: 1.54.

What about the enrichment score [4] of the same binder?
The enrichment score was inactive: 1.81.

What about the enrichment score [5] of the same binder?
The enrichment score was inactive: 1.09.

What about the enrichment score [6] of the same binder?
Its enrichment score is inactive: 1.3.

Which results are given for DDDPEDRKFLE [UPF3B_Y160_Y160D]?
enrichment score [1]: inactive: 0.316; enrichment score [2]: inactive: 0.407; enrichment score [3]: inactive: 0.363; enrichment score [4]: inactive: 0.389; enrichment score [5]: inactive: 0.41; enrichment score [6]: inactive: 0.343

How did the enrichment score [1] turn out when GADAIYDHINE [UQCR10_Y44] was run?
Its enrichment score is inactive: 0.846.

And the enrichment score [2]?
Its enrichment score is inactive: 0.601.

What about the enrichment score [3] of the same binder?
The enrichment score was inactive: 0.809.

What about the enrichment score [4] of the same binder?
Its enrichment score is inactive: 0.79.

And the enrichment score [5]?
Its enrichment score is inactive: 0.678.

And the enrichment score [6]?
Its enrichment score is inactive: 0.633.

With AHLTEYLSTHY [UQCRC1_Y219_D215H] as the binder, how does the enrichment score [1] read?
The enrichment score was inactive: 1.14.

What about the enrichment score [2] of the same binder?
The enrichment score was inactive: 0.995.

And the enrichment score [3]?
Its enrichment score is inactive: 1.06.

What about the enrichment score [4] of the same binder?
Its enrichment score is inactive: 0.874.

And the enrichment score [5]?
Its enrichment score is inactive: 0.95.

What about the enrichment score [6] of the same binder?
Its enrichment score is inactive: 1.04.

What does the source list for SEELHYFVQNH [UQCRC2_Y207]?
enrichment score [1]: inactive: 0.769; enrichment score [2]: inactive: 0.674; enrichment score [3]: inactive: 0.919; enrichment score [4]: inactive: 0.743; enrichment score [5]: inactive: 0.932; enrichment score [6]: inactive: 0.854

With ASELGYVFQAI [UROD_Y133] as the binder, how does the enrichment score [1] read?
Its enrichment score is inactive: 0.702.

What about the enrichment score [2] of the same binder?
Its enrichment score is inactive: 0.873.

And the enrichment score [3]?
Its enrichment score is inactive: 0.828.

What about the enrichment score [4] of the same binder?
Its enrichment score is inactive: 0.65.

And the enrichment score [5]?
Its enrichment score is inactive: 0.906.

What about the enrichment score [6] of the same binder?
The enrichment score was inactive: 0.904.

How did the enrichment score [1] turn out when GEETDYTPVWC [UROD_Y30] was run?
Its enrichment score is inactive: 0.684.

And the enrichment score [2]?
Its enrichment score is inactive: 0.512.

What about the enrichment score [3] of the same binder?
The enrichment score was inactive: 0.49.

What about the enrichment score [4] of the same binder?
Its enrichment score is inactive: 0.56.

What about the enrichment score [5] of the same binder?
The enrichment score was inactive: 0.426.

And the enrichment score [6]?
The enrichment score was inactive: 0.755.

How did the enrichment score [1] turn out when CGQDPCIRELG [UROS_Y19_Y19C] was run?
The enrichment score was inactive: 0.885.

What about the enrichment score [2] of the same binder?
The enrichment score was inactive: 0.759.

And the enrichment score [3]?
Its enrichment score is inactive: 0.668.

And the enrichment score [4]?
The enrichment score was inactive: 0.7.

What about the enrichment score [5] of the same binder?
Its enrichment score is inactive: 0.911.

What about the enrichment score [6] of the same binder?
Its enrichment score is inactive: 0.685.

Which results are given for DSILVYQGKEQ [USH2A_Y1909]?
enrichment score [1]: inactive: 0.831; enrichment score [2]: inactive: 0.662; enrichment score [3]: inactive: 0.702; enrichment score [4]: inactive: 0.542; enrichment score [5]: inactive: 0.537; enrichment score [6]: inactive: 0.807

Which enrichment score [1] does the source give for EPNSRYTYKLE [USH2A_Y3745] here?
The enrichment score was inactive: 0.905.

And the enrichment score [2]?
The enrichment score was inactive: 0.653.

What about the enrichment score [3] of the same binder?
The enrichment score was inactive: 0.775.

What about the enrichment score [4] of the same binder?
Its enrichment score is inactive: 0.711.

And the enrichment score [5]?
The enrichment score was inactive: 0.849.

What about the enrichment score [6] of the same binder?
The enrichment score was inactive: 0.843.

Which results are given for EPNSRYTCKLE [USH2A_Y3745_Y3747C]?
enrichment score [1]: inactive: 1.08; enrichment score [2]: inactive: 1.01; enrichment score [3]: inactive: 0.601; enrichment score [4]: inactive: 0.595; enrichment score [5]: inactive: 0.738; enrichment score [6]: inactive: 0.64

Which enrichment score [1] does the source give for NSRYTCKLEVK [USH2A_Y3747_Y3747C] here?
The enrichment score was inactive: 0.861.

And the enrichment score [2]?
Its enrichment score is inactive: 0.866.

What about the enrichment score [3] of the same binder?
The enrichment score was inactive: 0.812.

And the enrichment score [4]?
Its enrichment score is inactive: 0.791.

What about the enrichment score [5] of the same binder?
The enrichment score was inactive: 0.638.

What about the enrichment score [6] of the same binder?
Its enrichment score is inactive: 1.

What does the source list for NSRFTYKLEVK [USH2A_Y3747_YF]?
enrichment score [1]: inactive: 0.482; enrichment score [2]: inactive: 0.694; enrichment score [3]: inactive: 0.487; enrichment score [4]: inactive: 0.483; enrichment score [5]: inactive: 0.526; enrichment score [6]: inactive: 0.573

How did the enrichment score [1] turn out when DGTIVYTGLET [USH2A_Y4487] was run?
The enrichment score was inactive: 0.714.

And the enrichment score [2]?
The enrichment score was inactive: 1.88.

And the enrichment score [3]?
The enrichment score was inactive: 1.97.

And the enrichment score [4]?
Its enrichment score is active: 5.67.

What about the enrichment score [5] of the same binder?
Its enrichment score is inactive: 2.33.

What about the enrichment score [6] of the same binder?
Its enrichment score is inactive: 0.901.
